Reference: PubChem BioAssay AID360 (National Center for Advancing Translational Sciences (NCATS), 2006)
Screen size: about 48,000 compounds; about 550 (1.1%) were called active. Roughly 4% stayed inconclusive and do not appear here. Cut-off read from the data, not from the text of the source: active = potency below about 15 µM; inconclusive = mostly about 16 µM to 33 µM; inactive = weaker than that. The list shows a part of the results.

molecular target: Lysosomal acid glucosylceramidase (Homo sapiens) (UniProt P04062); assay: Glucocerebrosidase; details: purified enzyme, resorufin glucoside fluorescence (screen aimed at inhibitors), 20 min;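 note: the screen sought inhibitors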
Sequence of UniProt P04062 (P04062 whole entry, looked up): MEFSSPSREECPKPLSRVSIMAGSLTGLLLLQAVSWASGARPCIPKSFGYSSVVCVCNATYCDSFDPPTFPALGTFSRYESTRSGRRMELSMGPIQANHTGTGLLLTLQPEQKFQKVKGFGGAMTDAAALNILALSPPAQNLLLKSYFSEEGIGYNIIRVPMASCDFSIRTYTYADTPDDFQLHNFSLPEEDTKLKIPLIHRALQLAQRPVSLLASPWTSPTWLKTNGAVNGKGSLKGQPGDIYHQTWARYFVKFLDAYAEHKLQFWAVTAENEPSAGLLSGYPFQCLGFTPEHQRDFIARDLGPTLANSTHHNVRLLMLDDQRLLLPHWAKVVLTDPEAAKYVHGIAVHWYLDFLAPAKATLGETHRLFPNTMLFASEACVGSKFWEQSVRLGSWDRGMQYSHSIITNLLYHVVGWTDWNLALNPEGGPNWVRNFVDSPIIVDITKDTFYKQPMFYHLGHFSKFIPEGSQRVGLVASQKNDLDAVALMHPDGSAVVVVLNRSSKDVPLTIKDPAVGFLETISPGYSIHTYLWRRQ
Outline: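 Compounds titrated against 0.2 nM normal enzyme, 30 uM resorufin beta-D-glucopyranoside substrate, citrate/phosphate buffer with taurocholate and tween-20, pH 5.9. Reaction ran 20 min at room temperature; fluorescence (Ex 548/Em 600) gave AC50.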
Potency is the fitted concentration of half-maximal effect.

Potency, inactive:
COCCCn1c2nc3ccccc3nc2c2c(=O)n(Cc3ccccc3Cl)cnc21 > 76.9 µM
COc1ccc(OC)c(S(=O)(=O)NCCO)c1 > 76.9 µM
Cc1coc2c(C)c3oc(=O)c4c(c3cc12)CCC4 > 76.9 µM
COc1ccc(-c2nnc(SCC(=O)Nc3ccc(Cl)cc3)n2C)cc1 > 76.9 µM
CCc1ccc2c(c1)[C@]1(C(=O)N2)[C@@H]2C(=O)N(Cc3ccccc3)C(=O)[C@@H]2[C@@H]2CCCN21 > 76.9 µM
Cc1cccc(-c2nnc3n2N=C(c2ccccc2Br)CS3)c1
O=C(NC12CC3CC(CC(C3)C1)C2)N1CCCC(CO)C1 (centres undefined) > 76.9 µM
Cn1c(=O)c2c(nc(CN3CCC(Cc4ccccc4)CC3)n2CCN2CCOCC2)n(C)c1=O > 76.9 µM
CCOC(=O)c1c(C)n(C)c2ccc(OCC(O)Cn3nc(C)cc3C)cc12 (centres undefined) > 76.9 µM
CCCNC(=O)C(Cc1ccccc1)NS(=O)(=O)c1cccc2nsnc12 (centres undefined) > 76.9 µM
CC1CC(C)CN(c2oc(-c3ccccc3Cl)nc2C#N)C1 (centres undefined) > 76.9 µM
COCCn1c(SCC(=O)Nc2ccc3c(c2)OCCO3)nnc1-c1c[nH]c2ccccc12 > 76.9 µM
CCOC(=O)Cc1cc(=O)c2c(=O)n(-c3ccccc3)[nH]c2[nH]1 > 76.9 µM
Cc1ccc(S(=O)(=O)N2CCOCC2)c(C)c1-n1cnnn1 > 76.9 µM
Cc1ccccc1Cn1cc(NC(=O)c2cc3nc(-c4ccco4)cc(C(F)(F)F)n3n2)cn1 > 76.9 µM
CCN(CC)S(=O)(=O)c1ccc(F)c(C(=O)NCCC(C)C)c1 > 76.9 µM
CCCC(=O)N(Cc1cc2cccc(C)c2[nH]c1=O)c1ccccc1OC > 76.9 µM
C=CCNC(=O)c1ccc(Cl)cc1Cl > 76.9 µM
Cc1cc(NC(=O)c2cnn3c(C(F)(F)F)cc(-c4ccccc4)nc23)no1 > 76.9 µM
O=c1[nH]c(CN2CCc3ccccc3C2)nc2ccccc12 > 76.9 µM
CN(Cc1cccs1)S(=O)(=O)c1cccs1 > 76.9 µM
C1=C(C(c2nnnn2C2CCCCC2)N2CCCCC2)COc2ccccc21 (centres undefined) > 76.9 µM
COc1ccc(-n2nc(C(=O)NCC(=O)NCc3ccco3)c3ccccc3c2=O)cc1 > 76.9 µM
COc1ccc(CC(=O)N2CC(=O)N(CCc3ccccc3)C(=O)C2)cc1 > 76.9 µM
